From the supplement of paper PMC3334620
In all, about 33,000 sequences were measured (“E-score (-0.5 to 0.5)”: median about -0.012, highest 2% from about 0.29 on). This is one part of the list.

Target: T1, Ybr033w (UniProt P38073)
T1 sequence: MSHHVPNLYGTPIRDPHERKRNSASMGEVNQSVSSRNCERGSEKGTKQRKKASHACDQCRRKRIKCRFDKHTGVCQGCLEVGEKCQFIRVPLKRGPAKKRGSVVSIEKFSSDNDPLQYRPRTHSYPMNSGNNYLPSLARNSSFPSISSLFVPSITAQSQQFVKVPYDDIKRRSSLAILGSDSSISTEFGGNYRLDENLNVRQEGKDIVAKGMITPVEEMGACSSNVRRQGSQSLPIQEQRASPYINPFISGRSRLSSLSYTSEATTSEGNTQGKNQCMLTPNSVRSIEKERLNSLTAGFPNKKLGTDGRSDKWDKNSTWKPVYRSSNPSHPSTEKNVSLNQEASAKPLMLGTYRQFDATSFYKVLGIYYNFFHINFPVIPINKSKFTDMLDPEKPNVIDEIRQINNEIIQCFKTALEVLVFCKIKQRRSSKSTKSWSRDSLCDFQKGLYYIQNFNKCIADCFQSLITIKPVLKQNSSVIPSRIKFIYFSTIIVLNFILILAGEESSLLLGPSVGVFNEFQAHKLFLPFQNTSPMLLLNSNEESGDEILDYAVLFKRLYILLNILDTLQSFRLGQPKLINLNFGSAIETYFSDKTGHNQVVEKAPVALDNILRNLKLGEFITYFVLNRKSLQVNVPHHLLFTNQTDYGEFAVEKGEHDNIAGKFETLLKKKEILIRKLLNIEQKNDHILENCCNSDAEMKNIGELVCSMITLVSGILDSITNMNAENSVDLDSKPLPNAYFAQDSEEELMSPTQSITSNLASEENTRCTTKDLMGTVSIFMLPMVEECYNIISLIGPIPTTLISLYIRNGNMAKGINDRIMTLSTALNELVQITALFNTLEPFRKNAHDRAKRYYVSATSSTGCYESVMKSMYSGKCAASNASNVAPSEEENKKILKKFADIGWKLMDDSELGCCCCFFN
Assay: PBM E-score (8-mer binding enrichment) (E-score (-0.5 to 0.5)); higher = stronger / more preferred TF binding; most listed sequences are background and not binding sites
Conditions: protein concentration: 200 nM; construct: GST-full length
Procedure, shortened: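 The E-score, a modified Wilcoxon-Mann-Whitney statistic, was computed by the Universal PBM Analysis Suite for every ungapped eight-base word pooled with its reverse complement. Scans behind it were normalised with masliner after bound GST-tagged yeast transcription factors were detected with fluorescent anti-GST. The proteins, at about 100-200 nM, had been applied to universal all-10-mer Agilent arrays made double-stranded by primer extension.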

Row | Sequence | PBM E-score
1 | GGCTGAAA | 0.13
2 | AGTGGCCG | -0.271
3 | CGTGACCC | -0.187
4 | GTTTCTTA | 0.127
5 | CCCATCGC | -0.184
6 | AGATAGTC | -0.0515
7 | ATTCATCC | 0.349
8 | AAAAGGTT | 0.0857
9 | CAGTGATC | 0.00421
10 | CCCTGAGG | -0.23
11 | CCATAATA | 0.264
12 | TCTAGAGA | -0.123
13 | CGTATTAG | 0.279
14 | ACGCGCGG | -0.177
15 | ACAATCGA | 0.232
16 | ACAAAGTG | 0.204
17 | TATACTGA | 0.351
18 | CTCATAGA | 0.0395
19 | AGATAATG | 0.181
20 | CGTTTGCC | 0.0522
21 | GCCATCGC | -0.189
22 | ATGAGGAC | -0.0357

Row | Sequence | PBM E-score
23 | CACGCCGG | -0.165
24 | TGAAAAAA | 0.246
25 | ATTATTAA | 0.316
26 | TGTGATAA | 0.214
27 | AAGTGCAA | 0.044
28 | CACATGGA | -0.137
29 | TGATTCAA | 0.172
30 | CAACCGGG | -0.0573
31 | TCGCCCAA | -0.0573
32 | ATGAATAC | 0.0848
33 | GAATAAAA | 0.207
34 | CGTCGGTA | -0.265
35 | AGTCACCC | 0.0165
36 | AAACATGG | 0.0874
37 | ATGCACAA | -0.00047
38 | AGGGCAGC | -0.32
39 | GTTGTAAA | 0.137
40 | ATATGATG | 0.139
41 | TCCTAAGA | -0.0263
42 | GCTTGATA | 0.185
43 | ACCAGCGC | 0.0467
44 | GCATCCCC | -0.141

Row | Sequence | PBM E-score
45 | ACGTGTAG | -0.0472
46 | ACCACGTG | -0.101
47 | AACGGGAA | 0.248
48 | GCATACAA | 0.165
49 | ACGGCGAG | -0.202
50 | GGACTCTA | -0.106
51 | ATATCGGG | 0.18
52 | TCAAATGA | 0.09
53 | AATGAAGT | 0.217
54 | ATTAAGTC | 0.184
55 | CATAATCG | 0.0532
56 | AAGAGGTG | -0.0113
57 | CTACCGCA | -0.0903
58 | ACTCTAAA | 0.196
59 | CTGAAGTC | 0.0388
60 | AGCGCGCT | 0.0295
61 | GCTTGCCA | -0.0433
62 | TCGGCGAA | -0.0967
63 | ACTACTAG | 0.168
64 | AGGTATTA | 0.208
65 | AGAAGTCC | -0.166
66 | CCGGCCGG | -0.109

Row | Sequence | PBM E-score
67 | CTGAACGC | -0.0953
68 | CAATACGC | 0.0249
69 | AGGTGAGG | -0.0581
70 | GCCCTGCC | -0.33
71 | CCCGGCAA | -0.0779
72 | GCATCACC | -0.281
73 | TTCCTAAA | 0.107
74 | GGTGACAA | 0.114
75 | AACCTATA | 0.24
76 | AGCTGGTC | -0.0648
77 | CGTCTAAG | -0.142
78 | CCAAGACG | -0.057
79 | ACTGTCCA | -0.00789
80 | CTTGTCGA | -0.0906
81 | ACCTGGAT | -0.154
82 | TATCGATA | 0.083
83 | AGCCTAAG | -0.204
84 | ACGCGTAT | 0.0786
85 | GGAGTAGA | -0.00378
86 | ATCGACAG | -0.0467
